Reference: PubChem BioAssay AID1508624 (National Center for Advancing Translational Sciences (NCATS), 2021)
Out of some 48,000 compounds screened, about 120 (0.25%) were called active. Another 4% or so got no clear call; they are omitted. Calls come from the whole dose curve; as a rule, active = well fitted activation curve with a large enough effect; inconclusive = small, poorly fitted or top-dose-only effect, or another doubt; inactive = no such curve, though single readings can be large or run the other way. Some of the results follow.

assay: Primary qHTS for Identification of Small Molecule Activators of Huntingtin-Antisense Promoter Activity; settings: HEK293 HTT-AS promoter firefly luciferase reporter (activity 0% = vehicle and -100% = no light), 24 h; series mostly up to 57.5 µM; activity change, positive = activation: at the top concentration; note: nearly all actives have a fitted effect of over 55% in size
In short: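 Firefly luciferase signal from promoter-reporter HEK293 cells was scaled between vehicle (0%) and zero RLU (-100%). Compounds were tested at final concentrations of up to 57.5 uM over 24 h at 37 degrees C. PTC124 at 50 uM final served as control inhibitor.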

Activity change, positive = activation, inactive:
CCC1CCCCN1C(=O)Cn1c(=O)cc(C(F)(F)F)c2c(C)nn(C)c21 (stereo unspecified) -31.4%
O=C1c2[nH]nc(-c3ccccc3O)c2C(c2ccc(F)cc2)N1CCO (stereo unspecified) -14.3%
COc1ccc(OC)c(NC(=O)Cc2c(C(=O)O)n(C)c3ccc(C)cc23)c1 -9.17%
CCOC(=O)c1c(C)sc(-c2c(-c3ccc(OC)c(F)c3)[nH]c3[nH]c(=O)[nH]c(=O)c23)c1O -15.4%
COC(=O)c1cnn(-c2ccc(C(=O)Nc3cc(OC)c(OC)c(OC)c3)cc2)c1N 0.157%
COc1ccc(-c2nc(SCC(=O)N3CCCCC3C)n[nH]2)cc1 (stereo unspecified) -16.1%
CCOC(=O)c1cc(-c2ccc(OC)cc2)n(CCC(=O)Nc2nc3ccc(OCC)cc3s2)c1C -20%
CCc1cccc(C)c1Nc1c(-c2cccc(O)c2)nc2nc(C)cc(C)n12 -29.5%
CCc1ccccc1NC(=O)CSc1ncc(S(=O)(=O)c2ccc(C(C)C)cc2)c(N)n1 -43.3%
Cc1ccc(CN(Cc2ccco2)C(=O)c2ccc(Cl)cc2)o1 -32.5%
CCc1ccc(-n2c(=O)c3c(C)c(C(=O)N(C)C)sc3n(Cc3ccccc3C#N)c2=O)cc1 -1.88%
CN(C/C=C/c1ccccc1)Cc1cccc2ccccc12 -25.6%
COc1cc(Cl)c(C)cc1NC(=O)Cn1ncc2c3ccccc3n(Cc3ccccc3)c2c1=O -10.9%
CCc1ccc(CNC(=O)c2c(C)oc3ncn(CC(C)C)c(=O)c23)cc1 -27.6%
COc1ccc(C(=O)N2c3ccc(C)cc3C(C)(c3ccccc3)CC2(C)C)cc1 (stereo unspecified) -38%
COc1ccc(CNC(=O)CCCn2c(=O)c3cccn3c3cccnc32)cc1 0.394%
CCN(CC)CCCNC(=O)CN1N=C(c2ccc(OC)cc2)CCC1=O -0.942%
O=S(=O)(c1cccc(F)c1)N1CCC(Oc2ccc(-n3cnnn3)cc2)CC1 -33.9%
CCOCCCNC(=O)c1c(NC(=O)Cc2coc3ccc(C)cc23)sc2c1CCC2 -10.8%
CCc1ccc(S(=O)(=O)c2c(C(=O)c3ccccc3)cnc3ccc(CC)cc23)cc1 -41.7%
COc1ccccc1CN1CCC(CNC(=O)c2cnn(-c3ccc(Cl)cc3)c2C2CCN(C(=O)OC(C)(C)C)CC2)CC1 -13.5%
CC(C)c1ccc(OCC(O)CN2CCN(c3ccc(F)cc3)CC2)cc1 (stereo unspecified) -38.1%
CCCCNS(=O)(=O)c1ccc2nc(-c3cccnc3)cc(C(=O)NCCOC)c2c1 -9.56%
Cc1ccccc1NC(=O)c1ccc(Cl)c(S(=O)(=O)N2CCCCCC2)c1 -32.1%
Cc1nn(CC(=O)N2CCN(c3cccc(C(F)(F)F)c3)CC2)c(=O)c2cccn12 1.99%
Cc1nn(C)c2c1c(C(F)(F)F)cc(=O)n2C(C)C(=O)NCc1ccccc1Cl (stereo unspecified) -18.9%
COC(=O)c1sccc1S(=O)(=O)N(CC(=O)NCc1ccc(F)cc1)c1ccc(Cl)cc1 -32.7%
COc1ccc(CNC(=O)c2ccc(CNS(=O)(=O)c3ccc(F)cc3)cc2)cc1 -11.2%
Cc1ccc(NC(=O)Cn2nnc(C(=O)NCc3cccs3)c2N)cc1Cl -1.91%
Cc1oc(-c2cccc(Cl)c2)nc1Cn1c(SCc2ccccc2F)nc2ccncc21 13.2%
Cc1cc(C)cc(NC(=O)Cn2c(C(F)(F)F)nc3ccccc32)c1 -17.6%
Cc1ccccc1NC(=O)CSc1nnc(-c2cccs2)o1 7.83%
COc1ccc(CCNC(=O)c2ccc3c(c2)N(Cc2ccccc2C)C(=O)c2ccccc2S3)cc1OC -26.2%
COc1ccccc1NC(=O)CSC1=Nc2ccccc2C2=NC(CC(=O)NCc3cccs3)C(=O)N12 (stereo unspecified) -6.84%
Nc1c(CC(=O)O)cccc1C(=O)c1ccc(Br)cc1 -0.948%
Cc1ccc(NC(=O)C2CCCN2S(=O)(=O)c2ccc3c(c2)CCCC(=O)N3)cc1Cl (stereo unspecified) -37%
Cc1cccc(NC(=O)CSc2nc3ccc(NC(=O)COc4ccccc4F)cc3s2)c1 -20.3%
OCCN1CCN(CCCN2c3ccccc3C=Cc3ccccc32)CC1 -3.23%
C=CCNc1nc(NCC=C)nc(N2CCN(C(c3ccc(F)cc3)c3ccc(F)cc3)CC2)n1 -25.2%
O=C(CSc1ccc2nc(-c3ccccc3)cn2n1)Nc1cccc(F)c1 -46.8%
COc1ccc(NC(=O)c2c(NC(=O)Cc3ccccc3)sc3c2CCCC3)cc1 -20.3%
COc1ccc(NC(=O)Cn2c(=O)n(Cc3ccc(C(=O)NCc4ccccc4Cl)cc3)c(=O)c3ccccc32)cc1 -17.3%
COc1ccc(Cn2nnc3c(=O)[nH]c(C4CCN(C(=O)c5ccc(C)cc5)CC4)nc32)cc1OC -20.8%
Cc1cc(F)ccc1NC(=O)Cn1c(=O)ccc2cc(S(=O)(=O)N3CCC(C)CC3)ccc21 -31.9%
CCN(CC)CCCNC(=O)CN1N=C(c2ccccc2)CCC1=O -11%
O=C(Nc1cccc(F)c1F)C1CCN(c2ncccn2)CC1 -4.89%
CCSc1nn(CC(=O)Nc2ccc(C(=O)OC)cc2)c(N)c1S(=O)(=O)c1ccc(C)cc1 -27%
COC(=O)c1cc2occc2n1CC(=O)Nc1ccc(C(C)C)cc1 4.02%
O=C(Nc1ccc(F)cc1)N1CCN(C(=O)c2nsc3ccccc23)CC1 -26.4%
COC(=O)c1cc(NC(=O)c2ccc3c(c2)NC(=O)c2ccccc2S3)cc(C(=O)OC)c1 -9.49%
COc1ccc(-c2nc3c(c(SCC(=O)N4CCCCC4)n2)Cc2c(CO)cnc(C)c2O3)cc1 -14.1%
CSc1cccc(NC(=O)Cn2ncn3c(cc4ccccc43)c2=O)c1 -13.2%
Cc1cccc(N2CCN(C(c3ccccc3)c3nnc(-c4ccccc4Cl)o3)CC2)c1C (stereo unspecified) -13.4%
CCOc1ccccc1NC(=O)C(c1ccccc1)N1Cc2ccccc2C1=O (stereo unspecified) 1.56%
Fc1ccccc1N1CCN(c2ncc3c(n2)CCN(Cc2cc(Br)cs2)C3)CC1 -23.2%
Cn1nnc2c(N3CCN(c4cccc(C(F)(F)F)c4)CC3)ncnc21 -22.1%
COc1ccc(OC)c(CNC(=O)CN2CC(C)Sc3ccccc32)c1 (stereo unspecified) -22.9%
COc1ccc(CNC(=O)c2cnc(N3CCOCC3)c3ccccc23)cc1 -16%
N#Cc1ccccc1NC(=O)CSc1nnc(N)s1 -16%
Cc1ccc(Cl)cc1N1CCN(C(=O)c2cc3c(-c4ccccc4F)nn(C)c3s2)CC1 -23.3%
CCc1ccc2oc(-c3cc(NC(=O)c4cc([N+](=O)[O-])ccc4N4CCOCC4)ccc3Cl)nc2c1 -0.991%
